# Results as given in the supplement of paper PMC4604168 (melanoma cell lines).
# The list shows a part of the results. Single values are uncertain, as repeats are few or missing.
# System: A101D
# Test: cell count relative to DMSO control; melanoma cells; higher = more viable cells
# Conditions: library dose: low library concentration; 72 h
# 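Also: cell number obtained by counting DAPI-stained nuclei in high-throughput microscope images with image analysis software, screen run in 1,536-well plates.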
row,SMILES,cell count [%]
1,"O=C(Nc1cc(C(F)(F)F)cc(C(F)(F)F)c1)c1cc(Cl)ccc1O + COc1cc(Nc2ncc(F)c(Nc3ccc4c(n3)NC(=O)C(C)(C)O4)n2)cc(OC)c1OC [Tamatinib] (first compound 0.016 µM, partner dose 0.4 µM)",79.6
2,"O=C(O)[C@@H]1[O][Sb](=[O])([O][Sb]2(=[O])[O][C@H]([C@H](O)CO)[C@H](O)[C@H](C(=O)O)[O]2)[O][C@H]([C@H](O)CO)[C@@H]1O (stereo partly drawn) [stibogluconate] + Cc1nc(Nc2ncc(C(=O)Nc3c(C)cccc3Cl)s2)cc(N2CCN(CCO)CC2)n1 [dasatanib] (first compound 2 µM, partner dose 0.004 µM)",72
3,"O=C(O)c1ccc2c(c1)nc(Nc1cccc(Cl)c1)c1ccncc12 + CN(NC(=O)CC(=O)NN(C)C(=S)c1ccccc1)C(=S)c1ccccc1 [STA4783] (first compound 0.4 µM, partner dose 0.006 µM)",101
4,"O=C(Nc1cc(C(F)(F)F)cc(C(F)(F)F)c1)c1cc(Cl)ccc1O + O=c1[nH]nc(Sc2ncc([N+](=O)[O-])s2)n1-c1ccc2c(c1)OCCO2 [BI78D3] (first compound 0.016 µM, partner dose 0.2 µM)",108
5,"O=C(Nc1cc(C(F)(F)F)cc(C(F)(F)F)c1)c1cc(Cl)ccc1O + O=C(CCCCCCC(=O)Nc1ccccc1)NO [vorinostat] (first compound 0.016 µM, partner dose 0.08 µM)",92.9
6,"O=C(O)[C@@H]1[O][Sb](=[O])([O][Sb]2(=[O])[O][C@H]([C@H](O)CO)[C@H](O)[C@H](C(=O)O)[O]2)[O][C@H]([C@H](O)CO)[C@@H]1O (stereo partly drawn) [stibogluconate] + Cc1ccc(NC(=O)c2cccc(N(C)C)c2)cc1NC(=O)c1ccc(O)cc1 [ZM336372] (first compound 2 µM, partner dose 2 µM)",88.4
7,"O=C(O)[C@@H]1[O][Sb](=[O])([O][Sb]2(=[O])[O][C@H]([C@H](O)CO)[C@H](O)[C@H](C(=O)O)[O]2)[O][C@H]([C@H](O)CO)[C@@H]1O (stereo partly drawn) [stibogluconate] + CN(C)S(=O)(=O)c1ccc2c(c1)/C(=C/c1cc3c([nH]1)CCCC3)C(=O)N2 [SU6656] (first compound 2 µM, partner dose 0.4 µM)",84.9
8,"O=C(Nc1cc(C(F)(F)F)cc(C(F)(F)F)c1)c1cc(Cl)ccc1O + Cc1ccc(Nc2nccc(N(C)c3ccc4c(C)n(C)nc4c3)n2)cc1S(N)(=O)=O [Pazopanib] (first compound 0.016 µM, partner dose 0.4 µM)",121
9,"O=C(Nc1cc(C(F)(F)F)cc(C(F)(F)F)c1)c1cc(Cl)ccc1O + O=C(O)c1ccc(-c2c[nH]c3ncc(-c4ccccc4)cc23)cc1C1CCCC1 [GSK650394] (first compound 0.016 µM, partner dose 0.16 µM)",95.2
10,"O=C(O)c1ccc2c(c1)nc(Nc1cccc(Cl)c1)c1ccncc12 + C[C@@H]1CCN(C(=O)CC#N)C[C@@H]1N(C)c1ncnc2[nH]ccc12 [CP690550] (first compound 0.4 µM, partner dose 1 µM)",105
11,"O=C(Nc1cc(C(F)(F)F)cc(C(F)(F)F)c1)c1cc(Cl)ccc1O + C[C@@H]1CCN(C(=O)CC#N)C[C@@H]1N(C)c1ncnc2[nH]ccc12 [CP690550] (first compound 0.016 µM, partner dose 1 µM)",87.1
12,"O=C(O)[C@@H]1[O][Sb](=[O])([O][Sb]2(=[O])[O][C@H]([C@H](O)CO)[C@H](O)[C@H](C(=O)O)[O]2)[O][C@H]([C@H](O)CO)[C@@H]1O (stereo partly drawn) [stibogluconate] + CO[C@@H]1[C@H](N(C)C(=O)c2ccccc2)C[C@H]2O[C@]1(C)n1c3ccccc3c3c4c(c5c6ccccc6n2c5c31)C(=O)NC4 [Midostaurin] (first compound 2 µM, partner dose 0.08 µM)",95.2
13,"O=C(O)[C@@H]1[O][Sb](=[O])([O][Sb]2(=[O])[O][C@H]([C@H](O)CO)[C@H](O)[C@H](C(=O)O)[O]2)[O][C@H]([C@H](O)CO)[C@@H]1O (stereo partly drawn) [stibogluconate] + CC(=O)c1c(C)c2cnc(Nc3ccc(N4CCNCC4)cn3)nc2n(C2CCCC2)c1=O [palbociclib] (first compound 2 µM, partner dose 0.04 µM)",81.2
